In PubChem BioAssay AID1479 (National Center for Advancing Translational Sciences (NCATS), 2009):
The campaign covered roughly 280,000 compounds. About 820 (0.29%) were called active. This list was built around the results that the source calls inconclusive (neither active nor inactive); the mix of calls is not that of the screen. Calls follow the shape of the dose curve; as a rule, active = well fitted curve in either direction with a large enough effect; inconclusive = small, poorly fitted or top-dose-only effect; inactive = flat fitted curve, though single readings scatter. Potencies of inconclusive entries are left out as doubtful fits. A structure can be active in one record and inactive in another.

Assay: Total Fluorescence Counterscreen for Inhibitors of the Interaction of Thyroid Hormone Receptor and Steroid Receptor Coregulator 2
Details: TRb/SRC2 Texas Red total fluorescence interference; series mostly up to 106 µM
Outline: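 Human TRβ ligand-binding domain (0.6 uM) and Texas Red SRC2 peptide (20 nM) in Tris buffer with 1 uM T3 and 5% DMSO were incubated with pinned compound for 5 hr at ambient temperature. Total fluorescence was computed as S + 2P (555/632 nm).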
Potency is read from the fitted curve at half-maximal effect; tags tell the direction and shape of the fitted curve or compound fluorescence and quenching.

Compound | Potency
Cc1c(S(=O)(=O)c2ccccn2)c(N)n(Cc2ccccc2)c1C | inconclusive [fluorescent, partial curve]
O=C(N/N=C/c1ccccc1)NC1CCCCC1 | inconclusive [quencher, full curve]
Cc1ccc(SCC(=O)Nc2ccc3oc(-c4cccc(Cl)c4)nc3c2)cc1 | inconclusive [falling, full curve, poor fit]
CCCCCCCCCCOCC(O)CN (stereo not given) | inactive
CCOC(=O)c1cccc(NC(=O)NC(C)c2c(-n3cccc3)sc3c2CCN(C)C3)c1 (stereo not given) | inconclusive [falling, partial curve, poor fit]
CCOc1ccc(NC(=O)CCc2c(C)nc3c(-c4ccccc4)c(C)nn3c2C)cc1 | inconclusive [falling, full curve, poor fit]
CC1CCCCC1NC(=O)c1cncc(Br)c1 (stereo not given) | inactive
Cc1cccc(S(=O)(=O)c2cn(C)c3cc(N4CCN(c5ccccc5)CC4)c(F)cc3c2=O)c1 | active: 56.2 µM [quencher]
Cc1ccc(C(=O)c2ccccc2C(=O)OCC(=O)NCCc2ccccc2)cc1 | inconclusive [falling, full curve, poor fit]
COc1cccc(NC(=O)Cn2nc(C)c3c(C)n(-c4ccccc4)nc3c2=O)c1 | inconclusive [falling, partial curve, poor fit]
CNC(=O)c1cnc2sc(N3CCCCCC3)nn2c1=O | inconclusive [falling, partial curve, poor fit]
Cc1cccc(C)c1NC(=O)c1sc(-n2nc(C)c(Cc3ccc4c(c3)OCO4)c2C)nc1C | inconclusive [falling, full curve, poor fit]
Cc1ccc2sc(-c3ccc(N)cc3)nc2c1 | inactive
CC1CN2C(CCC(C)C2c2ccc(Br)cc2)C(=O)O1 (stereo not given) | inconclusive [falling, full curve, poor fit]
Cc1nc(N=Nc2cc(S(=O)(=O)O)c3cc([N+](=O)[O-])cc(S(=O)(=O)O)c3c2)c(COP(=O)(O)O)c(C=O)c1O | active: 28.2 µM [quencher]
O=C(N/N=C/c1c[nH]c2ccccc12)c1sc2ccccc2c1Cl | inactive
Oc1ccccc1/C=N/Nc1nccnc1Cl | inactive
Oc1cc(O)cc(/C=C/c2ccc(O)c(O)c2)c1 | active: 50.1 µM [quencher]
COc1cc(OC)cc(-n2c(=O)c3sccc3n(Cc3ccc(F)cc3)c2=O)c1 | inconclusive [falling, partial curve, poor fit]
COc1ccc(-c2noc(CSc3nnc(C)n3-c3ccc(F)cc3)n2)cc1 | inconclusive [falling, partial curve, poor fit]
CCCSC1=N/C(=C\c2ccc([N+](=O)[O-])o2)C(=O)S1 | inconclusive [quencher, partial curve]
CCOc1ccc(NC(=O)N2CC3CCCN3c3ccccc32)cc1 (stereo not given) | inactive
C(=C/c1nccc2c1[nH]c1ccccc12)/c1ccc2c(c1)OCO2 | inactive

Compound | Potency
N#C/C(=C\c1ccc(OCc2ccc(Cl)cc2Cl)cc1)c1nc2ccccc2[nH]1 | active: 282 µM [quencher]
Cc1cccc(C2=Nc3ccccc3N=C(c3cc(Cl)ccc3O)C2)c1 | inconclusive [falling, full curve, poor fit]
CCc1cccc(NC(=O)c2cc3c(=O)oc4ccc(C)cc4c3s2)c1 | inconclusive [quencher, full curve]
CC(C)c1ccc(OCC(=O)N(c2ccccn2)C2CCCCC2)cc1 | active: 5.62 µM [quencher]
Cc1ccc2oc(C(=O)N3CCC(c4nc5ccccc5s4)CC3)c(C)c2c1 | inconclusive [falling, partial curve, poor fit]
CCCOC(=O)c1cccc(NC(=O)CSc2nnc3cc(C)c4ccccc4n23)c1 | active: 2.82 µM [quencher]
O=S(=O)(c1ccc2nc(-c3ccccc3)[nH]c2c1)N1CCN(c2cccc(Cl)c2)CC1 | inactive
Cc1ccc(-c2nnc3c4ccccc4c(-c4ccccc4)nn23)cc1 | inconclusive [falling, full curve, poor fit]
COc1ccc(N2CCN(C(=O)c3cnc(N4CCOCC4)c4ccccc34)CC2)cc1 | inconclusive [falling, full curve, poor fit]
C=CCc1cccc(C2NC(C(=O)O)CCC2C)c1 (stereo not given) | inconclusive [quencher, full curve]
CC1=Nc2ccccc2/C1=C/c1nc(-c2ccc(C)s2)oc1O | inconclusive [rising, single point]
COc1ccc(N(CC(=O)NCCc2ccc(C)cc2)S(=O)(=O)c2c(C)nn(C)c2C)cc1 | inactive
C/C(=N\NC(=O)c1ccc(O)cc1)c1ccc(N2CCOCC2)cc1 | inactive
CCn1cc2nc(SCc3cc(C)ccc3C)n(CCc3ccccc3)c(=O)c2n1 | inactive
COc1cc2c(cc1OC)CN(C(=O)Nc1ccccc1)CC2 | active: 112 µM [quencher]
CC(=O)c1ccc(NC(=O)c2ccc3c(c2)N(Cc2cccc(Cl)c2)C(=O)c2ccccc2S3=O)cc1 (stereo not given) | inactive
Cc1ccc(NC(=O)CN2C(=O)c3cccnc3Oc3ccc(Cl)cc32)cc1 | active: 17.8 µM [quencher]
O=C(c1ccc(Cl)cc1Cl)n1nnc2ccccc21 | inconclusive [falling, full curve, poor fit]
Nc1nn(-c2ccccc2)nc1C(=O)OCc1ccc(Cl)cc1 | inconclusive [falling, full curve, poor fit]
Cc1cc(O)c(C=Nc2cccc(Cl)c2)c(=O)o1 | active: 44.7 µM [fluorescent]
Cc1ccc(CSc2ncc(Cl)c(C(=O)Nc3nnc(C)s3)n2)cc1 | inconclusive [rising, single point]
Cn1c(=O)c(NCCc2ccccc2)c2c3c(cccc31)C(=O)c1ccccc1-2 | active: 44.7 µM [fluorescent]
